Assay results from PubChem BioAssay AID493035 (The Scripps Research Institute Molecular Screening Center, 2011).
In all, about 2,000 compounds went through this assay and about 45 (2%) were called active.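 How the source made its calls: active means inhibition above the mean of all tested compounds plus 3 SD (cut at about 49% in these data); inactive means the rest.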 The list shows a part of the results.

These molecules were tested against Perilipin-5 (Homo sapiens) + 1-acylglycerol-3-phosphate O-acyltransferase ABHD5 (Homo sapiens) (UniProt Q00G26+Q8WTS1) (assay: blockers of ABHD5 binding to perilipin-5 – cell lysate, split luciferase complementation, luminescence, NIH validation set, pilot screen (AID 493035;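 further: 0% = DMSO only wells while the 100% control is not stated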)). Settings: split G. princeps luciferase complementation, lysates, 4 h; at 7.9 µM, hits give high values.
Chain of UniProt Q00G26 (Q00G26 whole entry, looked up): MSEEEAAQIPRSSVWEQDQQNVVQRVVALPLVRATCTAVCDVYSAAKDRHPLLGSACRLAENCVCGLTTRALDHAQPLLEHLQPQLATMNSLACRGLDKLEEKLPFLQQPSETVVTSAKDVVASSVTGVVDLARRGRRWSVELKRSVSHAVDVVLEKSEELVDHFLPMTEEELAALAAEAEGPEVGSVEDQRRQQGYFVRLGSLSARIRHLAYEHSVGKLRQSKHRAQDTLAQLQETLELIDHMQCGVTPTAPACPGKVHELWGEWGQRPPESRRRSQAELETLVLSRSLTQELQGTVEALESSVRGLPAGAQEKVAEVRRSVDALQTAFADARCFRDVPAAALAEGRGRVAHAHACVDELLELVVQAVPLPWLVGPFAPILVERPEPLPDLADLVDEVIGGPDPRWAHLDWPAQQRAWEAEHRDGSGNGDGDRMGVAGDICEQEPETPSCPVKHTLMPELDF
Chain of UniProt Q00G26 (Q8WTS1 whole entry, looked up): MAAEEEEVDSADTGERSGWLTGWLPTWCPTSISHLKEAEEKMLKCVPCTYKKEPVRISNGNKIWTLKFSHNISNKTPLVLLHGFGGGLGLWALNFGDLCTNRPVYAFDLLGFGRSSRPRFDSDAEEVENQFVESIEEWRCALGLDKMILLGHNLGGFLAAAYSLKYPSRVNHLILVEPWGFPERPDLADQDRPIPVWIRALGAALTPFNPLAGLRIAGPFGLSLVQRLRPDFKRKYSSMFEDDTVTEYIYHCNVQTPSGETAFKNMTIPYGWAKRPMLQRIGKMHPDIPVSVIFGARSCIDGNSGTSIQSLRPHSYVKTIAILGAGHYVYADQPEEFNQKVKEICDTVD

SMILES	inhibition
CC(=O)O[C@]1(C(C)=O)CC[C@H]2[C@@H]3C=C(C)C4=CC(=O)CC[C@]4(C)[C@H]3CC[C@@]21C	inactive: -9.22%
CC(=O)NCCCCCCNC(C)=O	inactive: -0.27%
CC(C)OC(=O)CC1C(=O)NCCN1C(=S)NC(=O)c1ccccc1Cl (centres undefined)	inactive: 4.38%
CC(C)Cc1ccc(C(C)C(=O)Nc2ccc(O)cc2)cc1 (centres undefined)	inactive: -3.61%
Cc1nc(C)c(C)nc1C	inactive: -0.39%
COc1cc2cc(C(=O)O)[nH]c2c(OC)c1OC	inactive: -0.8%
CC(=O)N(C(C)=O)c1nc2nc(C)cc(C)n2n1	inactive: 4.56%
O=C(CC(C(=O)O)c1c[nH]c2ccccc12)c1ccccc1 (centres undefined)	inactive: -7.3%
Cc1oc2cc(O)ccc2c(=O)c1Oc1ccccc1Br	inactive: 7.33%
COC(=O)CN1CC(=O)N(c2ccccc2)C1=S	inactive: -2.58%
CCCCC[C@H](O)/C=C/[C@@H]1[C@@H](CCCCCCC(=O)O)[C@@H](O)C[C@H]1O	inactive: 9.22%
O=C(/C=C/Sc1ccccc1)c1ccccc1	active: 85.6%
C=CCC1(O)C(=O)N2C(=C1C(=O)N1CCOCC1)c1ccccc1CC2(C)C (centres undefined)	inactive: 0.31%
Cc1c(OC(=O)CNC(=O)OC(C)(C)C)ccc2c3c(c(=O)oc12)CCC3	inactive: 11.6%
O=C1Nc2ccc3sc4ccccc4c3c2C1=O	inactive: -7.44%
COc1ccccc1NC(=O)N1CCc2[nH]c3ccc(Cl)cc3c2C1	inactive: 10.3%
CO/N=C(\C(=O)N[C@@H]1C(=O)N2C(C(=O)O)=C(COC(C)=O)CS[C@H]12)c1csc(N)n1 (stereo in doubt)	inactive: 14.3%
NC(=O)c1cccnc1	inactive: -6.1%
CC12CCCCN1CCCc1c2[nH]c2ccccc12 (centres undefined)	inactive: 6.67%
Cn1c(=O)c2c(ncn2CC(O)CO)n(C)c1=O (centres undefined)	inactive: -11.7%
COc1cccc(N2C(=O)CC(c3c[nH]c4ccccc34)C2=O)c1 (centres undefined)	inactive: -3.27%
O=C(O)C1CSC(c2ccc3c(c2)OCO3)N1 (centres undefined)	inactive: 24.3%

SMILES	inhibition
N=C1C(c2ccccc2)=C(O)CN1CCCO	inactive: -12.8%
O=c1nc2n(c3c1oc1ccccc13)Cc1ccccc1-2	inactive: 0.41%
COc1cc(C2C(C(=O)c3ccc(C)o3)=C(O)C(=O)N2Cc2cccnc2)ccc1O (centres undefined)	inactive: -7.73%
CC(=O)Oc1c2occc2cc2ccc(=O)oc12	inactive: 5.83%
OCCC1CN(Cc2ccccc2-c2ccco2)CCN1C1CCCC1 (centres undefined)	inactive: -8.47%
Cc1ccc2c(c1)C(O)(c1c(C)[nH]c3ccccc13)C(=O)N2 (centres undefined)	inactive: -4.15%
COc1ccccc1C(CC(=O)Nc1ccccc1C)c1ccc(OC(C)C)cc1 (centres undefined)	inactive: 1.65%
COc1ccc(CCNC(=S)NC(=O)/C=C/c2ccc(C)cc2)cc1OC	inactive: 11.2%
N/C(=N\OC(=O)/C=C/c1ccccc1)c1ccc(Br)cc1	inactive: -11.8%
CN(C)CCC(c1ccccc1)c1ccccn1 (centres undefined)	inactive: -1.36%
Nc1ccc2nc(Cc3ccccc3)[nH]c2c1	inactive: 1.14%
CC1(C)C(=O)OC(C(=O)c2ccc(Cl)cc2)C(C)(C)C1=O (centres undefined)	inactive: -5.91%
O=C(O)CCCCCCNC(=O)c1cncc(O)c1	inactive: -6.1%
CC1(C)Cc2ccccc2-c2nc(-c3ccccc3)oc(=O)c21	inactive: -6.63%
COc1c(C=O)c(CCN(C)C(=O)c2ccc(F)cc2)cc2c1OCO2	inactive: 3.02%
CCOC(=O)c1cccc(P(C)(C)=O)c1	inactive: -0.43%
CCOCCCNCc1cn(-c2ccc(F)cc2F)nc1-c1ccccc1C	inactive: -0.78%
C=CC1=C(C(=O)O)N2C(=O)C(NC(=O)Cc3ccccc3)C2SC1 (centres undefined)	inactive: 25.2%
C=CCc1ccccc1OCC(O)CNC(C)C (centres undefined)	inactive: 0.63%
O=C(Cc1ccccc1)NNC(=O)Cc1ccccc1	inactive: -4.46%
CCCCOc1ccc(CC(=O)NO)cc1	inactive: 35.2%
CC(=O)OC(C)C[N+](C)(C)C (centres undefined)	inactive: -12.9%

SMILES	inhibition
Cc1ccccc1OCC(O)CN1CCN(C)CC1 (centres undefined)	inactive: -6.87%
CC(=O)Nc1ccccc1C(=O)C(=O)Nc1ccccc1	inactive: 2.49%
COc1ccc(C2NC(=O)c3ccccc3O2)c(OC)c1OC (centres undefined)	inactive: 5.63%
O=C1CCCN1C(=O)CCC(=O)N1CCCC1=O	inactive: 4.49%
Cc1cccc2c(C(=O)O)cc(-c3cccnc3)nc12	inactive: 8.76%
O=C(CC(NC(=O)OCc1ccccc1)C(=O)O)OCc1ccccc1 (centres undefined)	inactive: 6.45%
O=C(O)CCCCCNC(=O)Nc1ccc2c(c1)OCCO2	inactive: 4.57%
CC(C)(C)C(=O)NC(=S)Nc1sc2c(c1C(N)=O)CCC2	inactive: 5.52%
COC(=O)C1=C(C)N(Cc2ccco2)C(=O)/C1=C\c1ccc([N+](=O)[O-])cc1	active: 84.5%
Cc1ccc(S(=O)(=O)N[C@@H](C)C(=O)N2CCC(C(=O)N3CCC[C@H]3C(=O)O)CC2)cc1	inactive: -6.48%
CC[C@]1(O)C[C@@H]2CN(CCc3c([nH]c4ccccc34)[C@@](C(=O)OC)(c3cc4c(cc3OC)N(C)[C@H]3[C@@](O)(C(=O)OC)[C@H](OC(C)=O)[C@]5(CC)C=CCN6CC[C@]43[C@@H]65)C2)C1	inactive: 0.15%
CN(C)CCOC(c1ccccc1)c1ccccc1 (tested in a mixture with another compound)	inactive: 1.43%
CCN(CCCc1ccccc1)CCCc1ccccc1	inactive: 8.07%
COc1ccc(C2c3c(n[nH]c3C)CC(C)(O)C2C(C)=O)cc1OC (centres undefined)	inactive: 0.45%
CC12CCC(C(=O)N(CCC#N)CCC#N)(CC1=O)C2(C)C (centres undefined)	inactive: -4.7%
CC(C)COc1ccc(Cc2cnc(N)nc2N)cc1	inactive: 0%
CCN(CC)C(=O)N1CCN(C)CC1	inactive: 15.6%
Nc1ccc(N=Nc2ccccc2)c(N)n1	inactive: 5.84%
OCC(O)CN1CCN(c2ccccc2)CC1 (centres undefined)	inactive: 3.21%
CC(C)C[C@H](NC(=O)NC(C)C)C(=O)O	inactive: -0.17%
